Experimental data taken from article PMC10239507, “Development of allosteric and selective CDK2 inhibitors for contraception with negative cooperativity to cyclin binding” (Nature Communications, 2023).

Target: GST-tagged CDK2 (human cyclin-dependent kinase 2, 1-298) (human, UniProt P24941)
Experiment: SPR; GST-CDK2 captured by anti-GST antibody on a CM5 chip (GST on the reference surface); Biacore S200, 20 °C; 20 mM HEPES, 150 mM NaCl, 10 mM MgCl2, 0.01% Tween 20, pH 7.4, no DMSO; single-cycle run, cyclin A 0-100 nM in eight points, 180 s association and 180 s dissociation; kinetic fit; two independent replicates
Settings: both partners purified

Kd: 3.1 nM and 2.6 nM
B1: Bovine cyclin A ([…] with a C-terminal 6His tag) (domain or fragment)
chain: not shown
notes: source: E. coli BL21(DE3)pLysS, purified (Ni, SEC)

Where “and” joins values, the source holds several entries; their conditions need not be identical. Equal values may be shown once.
